Assay results as given in PMC6919601, “Identification of Plasmodium dipeptidyl aminopeptidase allosteric inhibitors by high throughput screening” (PLoS ONE, 2019).
The whole screen tested about 110,000 compounds, of which about 230 (0.21%) showed an effect of 50% or more. This is one part of the list.

molecular target: DPAP1 (Plasmodium falciparum, UniProt Q8IIJ9); test: primary screen, percent inhibition; read by cleavage of a fluorogenic dipeptide substrate; higher = more effect of the substance; set-up: species or system P. falciparum D10 trophozoite lysates; single well
Sequence (Q8IIJ9 whole entry, looked up): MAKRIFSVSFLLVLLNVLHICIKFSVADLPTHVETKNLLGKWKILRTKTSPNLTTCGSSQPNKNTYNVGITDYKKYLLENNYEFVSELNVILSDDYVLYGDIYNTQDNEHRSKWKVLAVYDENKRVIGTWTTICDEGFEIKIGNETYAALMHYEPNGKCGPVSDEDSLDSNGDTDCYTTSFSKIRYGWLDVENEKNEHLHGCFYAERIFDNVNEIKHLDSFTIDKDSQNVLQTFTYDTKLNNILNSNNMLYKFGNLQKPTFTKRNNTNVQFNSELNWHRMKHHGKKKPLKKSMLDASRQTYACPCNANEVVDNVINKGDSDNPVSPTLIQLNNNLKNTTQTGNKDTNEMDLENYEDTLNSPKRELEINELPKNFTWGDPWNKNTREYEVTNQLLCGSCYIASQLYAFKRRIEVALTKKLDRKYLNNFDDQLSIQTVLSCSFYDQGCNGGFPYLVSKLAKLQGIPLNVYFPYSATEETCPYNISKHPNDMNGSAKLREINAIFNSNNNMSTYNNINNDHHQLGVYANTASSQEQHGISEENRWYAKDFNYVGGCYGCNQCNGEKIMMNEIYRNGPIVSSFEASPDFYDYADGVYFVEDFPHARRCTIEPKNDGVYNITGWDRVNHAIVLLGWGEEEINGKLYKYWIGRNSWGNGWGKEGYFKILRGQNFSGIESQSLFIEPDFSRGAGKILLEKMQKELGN
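Further: 30 min substrate incubation versus DMSO and 10 µM JCP410 controls.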

| SMILES | % Inhibition @ 10 uM [%] |
| --- | --- |
| Cn1cccc1/C=C1\CN(Cc2ccccc2)C/C(=C\c2cccn2C)C1=O | -5.51 |
| O=Cc1ccccc1OCCOc1ccccc1C=O | 16.9 |
| O=CN1CCN(C2CC3CCC2C3)CC1 (stereo not shown) | 4.55 |
| O=C(CCc1ccccc1)NC1(C(F)(F)F)N=C(c2ccccc2)NC1=O (stereo not shown) | -4.91 |
| CCOc1ccccc1NC(=O)c1ccc(N(C)C)cc1 | -2.17 |
| C#CC(C)(C)N1CCC(O)(c2ccccc2)C(C)C1 (stereo not shown) | 4.66 |
| O/N=C1/C2CCC1C(N1CCCCC1)CC2 (stereo not shown) | 4.89 |
| Cc1cc(C)c(C#N)c(Nc2cccc3ccccc23)n1 | -6.68 |
| O=C(NC1CCCCCCC1)C1CCN(c2c(N3CCCC3)c(=O)c2=O)CC1 | 3.3 |
| CCOC(=O)C1=C(C)NC(=O)CC1c1cccc(Oc2ccccc2)c1 (stereo not shown) | 7.62 |
| CC(=O)NC1C(OCc2ccccc2)OC(CO)C(O)C1O (stereo not shown) | -3.58 |
| Cc1cc(C)n2nc(NC(=O)C3CCCCC3)nc2n1 | 0.401 |
| CCOC(=O)c1cnc2c(ccc3ccccc32)c1Cl | 9.39 |
| CCc1ccc(OCC(=O)Nc2ccc(OC)c3ccccc23)cc1 | -2.62 |
| O=C(NCCc1ccc(S(=O)(=O)N2CCCC2)cc1)c1cccs1 | 0.503 |
| Cc1ccc(/C(O)=C/c2nc3ccccc3nc2O)o1 | 0.919 |
| Clc1ccc(OCCn2cnc3ccccc32)cc1 | -1.99 |
| CCCC(=O)Nc1ccc2nc(SCC(=O)Nc3nccs3)sc2c1 | 2.38 |
| Cc1ccnc2c(NCN3C(=O)C4C5C=CC(C5)C4C3=O)cccc12 (stereo not shown) | 2.36 |
| Cc1n[nH]c2c1C1(CC(C)N(C)C[C@H]1C)C(C#N)=C(N)O2 (stereo partly shown) | -1.42 |
| CC(O)CN(CCC(C)c1ccccc1)CC(C)O (stereo not shown) | -1.5 |
| Cc1nc2[nH]c(-c3cccs3)nc2cc1Br | 2.58 |
| CC1CCN(S(=O)(=O)c2ccc3c(ccn3CC(=O)NCCC3=CCCCC3)c2)CC1 | 0.359 |
| Cc1ccc(OC(C)C(=O)Nc2ccccc2O)cc1 (stereo not shown) | -2.76 |
| Cc1ccc2nc(NCc3cccnc3)c(/C=N\Cc3cccnc3)c(=O)n2c1 | -4.93 |
| Cc1sc(-c2ccncc2)nc1-c1c[nH]c2ccccc12 | -0.185 |

| SMILES | % Inhibition @ 10 uM [%] |
| --- | --- |
| CCc1c(C#N)c(N)nc(SCC(=O)c2ccc(-c3ccccc3)cc2)c1C#N | 2.55 |
| CCOc1ccc(C2=CC(=O)C(C(C)=O)CC2)cc1 (stereo not shown) | 3.1 |
| c1ccc(-c2cc(-c3cc(-c4ccccc4)on3)no2)cc1 | -2.42 |
| CCOc1ccccc1/C=C1\C(=O)C2CCN1CC2 | 2.44 |
| O=C1C(c2ccncc2)=C(O)c2ccccc21 | 0.00178 |
| CC(NC(=O)CNC(=S)N(Cc1cccs1)C1CCCC1)c1ccccc1 (stereo not shown) | -7.73 |
| Clc1ccc2[nH]c3ccccc3c2c1 | -2.41 |
| Cc1ccc(Cl)cc1-n1nnnc1C(c1ccccc1)N(C)C (stereo not shown) | -2.81 |
| Oc1ncnc2nc(-c3ccccc3)c(-c3ccccc3)nc12 | 0.944 |
| Cc1ccccc1CSCC(=O)NC1CC2CCC1C2 (stereo not shown) | -0.968 |
| CC1C(=O)C(C)C(c2ccccc2O)NC1c1ccccc1O (stereo not shown) | 0.587 |
| CC(C)COC(=O)C1=CN=C2SCCC(=O)N2C1c1ccccc1Cl (stereo not shown) | -1.17 |
| Cc1ccc2cc3cc(C(=O)N4CCC(C)CC4)oc3nc2c1 | -1.54 |
| CCOc1ccc(CN(C(=O)c2cc(=O)c3ccc(C)cc3o2)C2CCS(=O)(=O)C2)cc1 (stereo not shown) | -3.24 |
| COc1ccc(N(CC(=O)N2CCN(c3ccccc3)CC2)S(=O)(=O)c2ccccc2)c(OC)c1 | 2.92 |
| COc1ccc(N(CC(=O)Nc2ccc(Cl)cc2)S(=O)(=O)c2ccc(NC(C)=O)cc2)cc1 | 8.64 |
| CCCCN(C)CCNC(=O)c1cc2c(O)nc3ccccc3c2n1C | -3.23 |
| CC1CCN(S(=O)(=O)c2ccc(NC(=O)c3cccc(F)c3)cc2)CC1 | -3.21 |
| CCCCNS(=O)(=O)c1ccc2nc(-c3cccnc3)cc(C(=O)NC(C)CC)c2c1 (stereo not shown) | -3.21 |
| CC(Oc1ccc(Cl)cc1Cl)C(=O)Nc1ccc(S(=O)(=O)N2CCCCC2)cc1 (stereo not shown) | -0.95 |
| Cc1cc(C)c2oc(C(=O)NCc3ccncc3)cc(=O)c2c1 | -5.08 |
| Cc1cc(/C=C2\NC(=O)N(Cc3ccc(Cl)cc3)C2=O)c(C)n1-c1ccc(C#N)cc1 | 2.17 |
| Cc1ccccc1-c1nc(SCC(=O)N2CCCC2)n2[nH]c(=O)cc2n1 | 5.78 |
| COc1ccc(S(=O)(=O)Nc2cccc(C)c2C)cc1 | 2.22 |
| NC(=O)c1c(NC(=O)c2ccccc2F)sc2c1CCCC2 | 2.32 |
| COc1cc(CN(C(=S)NCC(=O)NC2CCCC2)C2CCCC2)cc(OC)c1OC | 1.27 |

| SMILES | % Inhibition @ 10 uM [%] |
| --- | --- |
| CCN1CCCC(Nc2ccnc3cc4ccccc4cc23)C1 (stereo not shown) | 1.7 |
| Cc1cc(C)c(NC(=O)CN2C(=O)c3ccccc3S2(=O)=O)c(C)c1 | 9.94 |
| O=C(CC(c1ccc(F)cc1)c1ccco1)N1CCOCC1 (stereo not shown) | -10.8 |
| O=C(NCc1ccc(-n2cccc2)cc1)c1cccc(F)c1 | 1.32 |
| c1ccc(-c2csc(-c3nc(-c4ccccc4)cs3)n2)cc1 | 1.9 |
| COc1cc(C(=O)Nc2ccc(NC(=O)c3cccc(C)c3)cc2)cc(OC)c1OC | -1.57 |
| CCOC(=O)c1c(C)nc(C)c(C(=O)OCC)c1-c1ccc(OC)cc1 | -1.96 |
| CC(NC(=O)c1cc2c(s1)CS(=O)(=O)C2)c1ccccc1 (stereo not shown) | -12.1 |
| CN(C)c1ccc([C@H](N[C@@H](CC2CCCCC2)C(=O)NC2(C#N)CC2)C(F)(F)F)cc1 | 1.61 |
| O=C(NCCc1c[nH]c2ccccc12)c1ccc(C(F)(F)F)cc1 | -1.22 |
| Cc1ccc(Nc2nc(-c3ccc(S(=O)(=O)N4CCOCC4)cc3)cs2)cc1 | -0.693 |
| Cc1ccc(NC2=NC(=O)C(CC(=O)Nc3ccccc3F)S2)cc1Cl (stereo not shown) | -1.38 |
| N#CCNC(=O)[C@H](COCc1ccccc1)NC(=O)c1ccccc1 | 2.86 |
| CN(CCCNC(=O)c1ccc(CS(=O)(=O)Cc2cccc(Cl)c2)o1)C1CCCCC1 | 3.93 |
| C=CCc1ccccc1OCC(O)CN1CCC(C)CC1 (stereo not shown) | 3.01 |
| CC1(C)CC2=NC3=C(C(=O)c4ccccc43)C(c3ccccc3C(F)(F)F)C2=C(O)C1 (stereo not shown) | 0.9 |
| CCc1ccc(C(=O)O/N=C(\N)c2ccccn2)cc1 | 3.94 |
| CCOC(=O)c1c(Cc2cccc(C(F)(F)F)c2)c[nH]c1C | 2.77 |
| Cc1onc(-c2ccccc2)c1C(=O)Nc1cccc(NC(=O)c2c(-c3ccccc3)noc2C)c1 | -1.42 |
| CC1CCN(CC(O)COc2ccc(C34CC5CC(CC(C5)C3)C4)cc2)CC1 (stereo not shown) | 5.61 |
| CC(CCc1ccccc1)NC(=O)c1cc2c(s1)CS(=O)(=O)C2 (stereo not shown) | -7.3 |
| COc1ccccc1CNC(=O)c1cccs1 | -2.36 |
| c1ccc2c(c1)COC(CN1CCOCC1)OC2 | -4.67 |
| O=C(NCCCn1ccnc1)/C(=C/c1cccs1)NC(=O)c1ccco1 | 0.484 |
| CCc1nn(CC(=O)NCC2CCCO2)c(=O)c2cc3ccccc3n12 (stereo not shown) | 3 |
| COc1ccc(C(=N)NOC(=O)CCc2ccccc2)cc1 | -1.4 |

| SMILES | % Inhibition @ 10 uM [%] |
| --- | --- |
| CCOc1ccc(OCC)c(S(=O)(=O)n2cc(C)nc2CC)c1 | 6.51 |
| COC(=O)c1ccc(CN2CCC(Cc3ccccc3)CC2)cc1 | -0.0648 |
| O=C(CN1CCCCC1)N1CCN(c2ccc3ccccc3n2)CC1 | -6.83 |
| Clc1ccc(OCCCN2CCCC2)cc1 | 3.35 |
| CCOc1ccc(C(CC(=O)O)n2cnnn2)cc1OC (stereo not shown) | 2.99 |
| Cc1ccc(C(=O)NC(=O)CSc2ncccc2C(=O)O)cc1 | 5.49 |
| CC(C)n1cnc2cc(NC(=O)c3ccco3)ccc21 | -3.45 |
| O=C(NCc1cccnc1)c1ccc(CS(=O)(=O)c2ccc(Br)cc2)o1 | 2.14 |
| OCCN(CCO)Cc1ccccc1 | -0.603 |
| CC(NC(=O)Cn1ncc2ccsc2c1=O)c1ccc2c(c1)OCCO2 (stereo not shown) | -10.4 |
| O=C(Cn1ncc2c1-c1ccccc1OC2)N1CCN(C(=O)c2ccco2)CC1 | 0.981 |
| O=c1c2cnc(NCc3cccnc3)nc2ccn1Cc1cccnc1 | -2.83 |
| O=c1cc(-c2ccccc2)nc2n1N=C(c1ccccc1)C2 | -2.78 |
| CCC(C(=O)NCCc1ccco1)n1nc(C)c2sc3ccccc3c2c1=O (stereo not shown) | 1.63 |
| CCCC(=O)Nc1ccc(Cl)c(NC(=O)c2ccc3ccccc3c2)c1 | -0.469 |
| COc1ccc(S(=O)(=O)N(C)CC(=O)Nc2cccc(F)c2)cc1 | 4.22 |
| O=P1(O)COc2ccccc2OC1 | -0.178 |
| Cc1ccc(CSc2nc3ccncc3n2Cc2ccc(C(=O)N3CCN(C)CC3)cc2)cc1 | 19.8 |
| COc1ccc2nc(NC(=O)CSc3nc4ccccc4o3)sc2c1 | -3.49 |
| Cc1nn(C2CCOC(C)(C)C2)c2c1C(c1ccc(OCc3ccccc3)cc1)SCC(=O)N2 (stereo not shown) | 6.01 |
| Cc1cc(O)nc(-n2nc(C)cc2C)n1 | -4.15 |
| COc1ccc(C(C)=O)cc1CSc1nnc(C(O)c2ccccc2)n1-c1ccccc1 (stereo not shown) | 0.503 |
| N#Cc1cn(CC(=O)N2CCCCCC2)c2ccc(Br)cc12 | -0.105 |
| CCN(C(=O)CCc1ccccc1)c1nc(-c2ccccc2)cs1 | -0.426 |
| COc1ccc2ccccc2c1/C=C1\N=C(c2ccc(F)cc2)OC1=O | -5.6 |
